Assay results taken from PubChem BioAssay AID686979 (National Center for Advancing Translational Sciences (NCATS), 2013).
“And” between values parts separate entries of the source, which are not always exact repeats. Identical values can stand only once. Out of some 420,000 compounds screened, about 50,000 (12%) were called active. The inconclusive results got no clear call from the source; some entries with a clear call stand among them for comparison. Calls follow the shape of the dose curve; as a rule, active = well fitted inhibition curve with a large enough effect; inconclusive = small, poorly fitted or top-dose-only effect; inactive = flat fitted curve, though single readings scatter. Where the call is inconclusive, the potency comes from a doubtful curve fit. The source holds several records for some structures; these can differ, active in one and inactive in another.

test: qHTS for Inhibitors of human tyrosyl-DNA phosphodiesterase 1 (TDP1): qHTS in cells in presence of CPT; settings: chicken DT40 Tdp1-/-;hTDP1 cells + 20 nM CPT, ATP luminescence, 48 h; activity change, negative = growth inhibition: at 46.2 µM (top of the series) unless noted; also: nearly all actives have a fitted effect of over 55% in size
Outline: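 Chicken DT40 Tdp1-/- cells stably complemented with human TDP1 were seeded at 400 cells/well in medium containing 20 nM camptothecin, exposed to pin-transferred compounds, and grown at 37 °C for at least 48 hr. Viability was read as ATP luminescence.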
% is scaled to controls: 0 for no effect and ±100 for the full control effect; potency is read from the fitted curve at half-maximal effect; tags tell the direction and shape of the fitted curve.

SMILES	Potency	activity change, negative = growth inhibition
COc1ccc(-c2nc(CN3CCC(c4ccccc4)CC3)c(C)o2)cc1OC	inconclusive: 29.1 µM [inhibitor, single point]	
CC1CC(C)(C)n2c(O)c(N=NC(N)=S)c3cccc1c32 (centres undefined)	inconclusive: 29.1 µM [inhibitor, single point]	
CNC(=O)c1c(NC(=O)c2ccc(S(=O)(=O)N(C)c3ccccc3)cc2)sc2c1CCN(C(C)C)C2	active: 18.4 µM	
COc1ccc(C(O)(CCc2ccccc2)CCN2CCCCC2)cc1 (centres undefined)	inconclusive: 29.1 µM [inhibitor, single point]	
O=C(CSc1cn(CCNC(=O)c2cccs2)c2ccccc12)NC1CCCCC1	inconclusive: 25.9 µM [inhibitor, single point]	
CCCn1c(-c2nonc2N)nc2ccccc21	inconclusive: 13 µM [inhibitor, partial curve]	
CNCCC(Oc1ccccc1OC)c1ccccc1 (centres undefined)	active: 13 µM	
O=C(Nc1cccc(OC(F)(F)F)c1)c1ccc(-c2cccnc2)c2ccoc12	inconclusive: 29.1 µM [inhibitor, single point]	
CCn1c(=S)sc2c(=O)n(-c3ccccc3)c(SC)nc21	inconclusive: 35.5 µM [inhibitor, partial curve, poor fit]	
O=C(NCC1CCCO1)C1CC1(c1ccccc1)c1ccccc1 (centres undefined)	inconclusive: 5.8 µM [inhibitor, partial curve]	
O=S(=O)(NCc1cccnc1)c1ccc(Cl)c2ccccc12	inconclusive: 0.231 µM [inhibitor, full curve, poor fit]	
Cc1c(Cl)cccc1NC(=O)Nc1ccc2snnc2c1	active: 14.6 µM	
CCn1nc(C)c(NC(=O)CCSc2nc(-c3ccco3)cc(C(F)(F)F)n2)c1C		inconclusive: -30.9% [inhibitor]
Oc1c(C(c2ccccc2F)N2CCCC2)sc2nc(-c3ccco3)nn12 (centres undefined)	inactive	
CSc1nc(=O)[nH]nc1Sc1ccccc1	inconclusive: 20.6 µM [inhibitor, single point]	
O=C(CCc1ccccc1)N[C@@H]1c2ccccc2CC[C@H]1OCc1ccccc1	inconclusive: 29.1 µM [inhibitor, single point]	
Cc1ccc(S(=O)(=O)N2CC(O)C[C@H]2C(=O)OCC(=O)N2CCN(c3ccc(F)cc3)CC2)cc1C (some centres undefined)	active: 10.3 µM	
CC(C)(CO)NCC(=O)Nc1cc(C(F)(F)F)cc(NC(=O)CNC(C)(C)CO)c1Cl	inactive	
CCN(CC)CCOCCOc1cc(C)c(Cl)c(C)c1	active: 23.1 µM	
CC(NC(=O)CCc1c[nH]c2ccccc12)c1ccccc1 (centres undefined)	inactive	
CCOc1ccc(C2CC(c3cccc(C)c3)n3nc(N)nc3N2)cc1 (centres undefined)		inconclusive: -30.6% [inhibitor]
COc1ccc(CNCC(O)(c2ccc(Cl)cc2)c2ccc(Cl)cc2)cc1	active: 14.6 µM	
O=C1NN(c2ccccc2)C(=O)/C1=C/c1ccc(Sc2ccc(Cl)cc2)o1	inconclusive: 25.9 µM [inhibitor, single point]	

SMILES	Potency	activity change, negative = growth inhibition
Cc1ccc(NC(=O)CSc2nc3c(c(=O)n(C)c(=O)n3C)n2C)cc1	inconclusive: 14.6 µM [inhibitor, single point]	
CCCC1=Nc2cc(C(=O)NCCOC)ccc2Sc2ccccc21	inconclusive: 0.651 µM [inhibitor, full curve, poor fit]	
Cc1ccc(C)c(OCC(=O)N(Cc2nnc(-c3ccccc3Cl)o2)C2CC2)c1	inconclusive: 29.1 µM [inhibitor, single point]	
CC(=O)Nc1ccc(NC(=O)c2cc(-c3ccc4c(c3)OCCO4)on2)cc1	inconclusive: 20.6 µM [inhibitor, single point]	
O=C1C(=O)c2c(ccc3ccccc23)-c2ccccc21	active: 0.58 µM	
CC(C)NC(=O)c1cc(C2CCCCN2C(=O)c2ccc(C(C)C)cc2)on1 (centres undefined)	inconclusive: 29.1 µM [inhibitor, partial curve]	
COC(=O)CNC(c1ccccc1)c1cc(Br)ccc1NS(=O)(=O)c1ccc(C)cc1 (centres undefined)	inconclusive: 18.4 µM [inhibitor, single point]	
CC1CNCCN1S(=O)(=O)c1cccc2cnccc12 (centres undefined)	inconclusive: 29.1 µM [inhibitor, single point] and inconclusive: 50.1 µM [inhibitor, single point]	
O=[N+]([O-])c1cc2c(c(CSc3nnnn3-c3ccc(O)cc3)c1)OCOC2	active: 20.6 µM	
COc1ccc(OC)c(-c2csc(NC(=O)CSc3nnnn3C)n2)c1	inactive	
O=C(N/N=C/c1cc(Br)ccc1O)c1ccncc1	active: 4.61 µM	
CC1(C(=O)NC2CCN(Cc3ccccc3)CC2)CCN1Cc1ccc2ccccc2c1 (centres undefined)	inconclusive: 29.1 µM [inhibitor, single point]	
O=C(C[n+]1ccccc1)Nc1c(Cl)cc(Cl)cc1Cl	inactive	
CC(C)NC(=O)N(C)C[C@H]1Oc2ccc(NC(=O)C3CC3)cc2C(=O)N([C@H](C)CO)C[C@@H]1C	inconclusive: 11.6 µM [inhibitor, partial curve, poor fit]	
COc1ccc(-c2nc(SCC(=O)NCCc3ccccc3)n[nH]2)cc1	inconclusive: 25.9 µM [inhibitor, single point]	
COc1ccc(-c2noc(CSc3nnc(C)n3-c3ccc(C)c(C)c3)n2)c(OC)c1	inconclusive: 29.1 µM [inhibitor, single point]	
O=C(NCCc1csc(-c2cccnc2)n1)c1cccs1	inconclusive: 20.6 µM [inhibitor, single point]	
NS(=O)(=O)c1ccc(NNC(=O)c2ccccc2C(=O)O)cc1	inactive	
Cc1cccc(CSc2ccc(-c3cccs3)nn2)c1	inactive	
CC(CNc1ccc(Cl)cc1)(CNc1ccc(Cl)cc1)[N+](=O)[O-]	inconclusive: 20.6 µM [inhibitor, single point]	
COc1cc(/C=c2/sc3nc(-c4ccccc4)c(-c4ccccc4)n3c2=O)cc(OC)c1OC	active: 6.51 µM	
COCc1cc(C)nc(OCC(=O)N/N=C/c2ccccc2O)c1C#N	inconclusive: 20.6 µM [inhibitor, single point]	
CCOC(=O)/C(C#N)=N/Nc1ccccc1C#N	active: 8.2 µM	

SMILES	Potency	activity change, negative = growth inhibition
Cc1ccc(Nc2nc(NCc3ccco3)nc3nccnc23)cc1	inconclusive: 12.6 µM [inhibitor, single point]	
CCc1ccc(OCC(=O)Nc2ccc3c(c2)c2ccccc2n3CC)c(Br)c1	inconclusive: 16.4 µM [inhibitor, partial curve, poor fit]	
N#C/C(=C\c1cc(Br)c(O)c(Br)c1)c1nc2ccccc2c(=O)[nH]1	inconclusive: 11.6 µM [inhibitor, partial curve]	
O=C(c1cc(COc2c(F)cccc2F)on1)N1CCC(c2ccncc2)CC1	active: 9.2 µM	
CCOc1ccc(NC(=O)C(C)n2c(=O)cc(C)c3c(C)nn(-c4ccccc4)c32)cc1 (centres undefined)	inconclusive: 23.1 µM [inhibitor, partial curve]	
Cc1sc2ncnc(N3CCC(C(=O)NNC(=O)c4ccc(Cl)cc4)CC3)c2c1C	active: 16.4 µM	
c1ccc2c(N3CCCC3)nc(-c3ccncc3)nc2c1	inconclusive: 29.1 µM [inhibitor, single point]	
CN(C)S(=O)(=O)c1cccc(NC(=O)Cc2ccc(Cl)cc2)c1	inconclusive: 29.1 µM [inhibitor, single point]	
COc1cc2c(C#CCO)c(-c3ccc(C#N)cc3)oc(=O)c2cc1OC	inconclusive: 3.26 µM [inhibitor, partial curve]	
O=C(O)Cc1cn(-c2ccccc2)nc1-c1ccc(Cl)cc1	inconclusive: 29.9 µM [inhibitor, single point]	
COC(=O)[C@H]1C[C@H](OC(=O)Nc2c(C)noc2C)[C@@]2(O)CN(S(=O)(=O)c3ccc(C)cc3)CC2[C@H]1C(=O)OC (some centres undefined)	inactive	
O=C(C1=C[C@H](c2ccc(C(F)(F)F)cc2)C[C@H](OCc2ccc(CO)cc2)O1)N1CCN(Cc2ccccc2)CC1	active: 23.1 µM	
CCCc1c(-c2cccc(Br)c2)ncn1Cc1ccccc1OC	inconclusive: 20.6 µM [inhibitor, single point]	
CCCCCNC(=O)C(c1cc2ccccc2o1)n1c(=O)c(-c2ccco2)nc2ccccc21 (centres undefined)	inconclusive: 0.0046 µM [inhibitor, full curve, poor fit]	
C=CCCCCCCCCC(=O)N1CCN(c2cc3c(cc2F)c(=O)c(C(=O)O)cn3CC)CC1	active: 20.6 µM	
O=C(O)COc1ccc2c(c1)OCCO2	inactive	
O=C(Cn1c(=O)oc2cc(S(=O)(=O)N3CCCCC3)ccc21)NCc1ccc(F)cc1	active: 5.17 µM	
COCCNC(=O)CCc1c(C)nc2c(c(C)nn2-c2ccc(C)c(C)c2)c1C	inconclusive: 13 µM [inhibitor, partial curve]	
CCOc1ccc2c(c1)C(N(CCN1CCOCC1)C(=O)Nc1ccccc1)CC(C)(C)O2 (centres undefined)	inactive	
COc1ccc(NC(=O)Nc2nnc(-c3ccccc3F)s2)cc1	inconclusive: 16.4 µM [inhibitor, single point]	
C/C(=N\NC(=O)c1cccc2ccccc12)c1cccs1	inactive	
CC(C)(C)NC(=O)CSc1ncnc2c1nnn2Cc1ccccc1Cl	inconclusive: 29.1 µM [inhibitor, single point]	
O=C(CN1C(=O)C2C3C=CC(C3)C2C1=O)Nc1nc(SCc2ccc(Cl)cc2)n[nH]1 (centres undefined)	inconclusive: 29.1 µM [inhibitor, single point]	
